From the supplement of paper PMC11876631 come the findings set out here.

In the data set the target is Escherichia coli (laboratory strain). Put plainly: barcode share on antibiotic plates over drug-free plates; higher = less susceptible. The protocol: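 A pool of E. coli strains, each edited to carry one amino-acid change in an essential protein, was grown for 48 h on minimal glucose agar with or without antibiotic; strain barcodes were sequenced; mean of two replicates.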

The mark [1] stands for this setting: antibiotic: carbenicillin, 2× MIC (3.1 µg/mL).
[2] abbreviates: antibiotic: gentamicin, 2× MIC (MIC 0.45 µg/mL).

± gives the standard deviation of the averaged measurements. Laboratory Escherichia coli strains with one amino-acid change in an essential protein, pooled on minimal glucose agar with carbenicillin or gentamicin at twice the control MIC (plus kanamycin and chloramphenicol for the plasmids), 48 h. Fold change of barcode share against drug-free plates; higher = less susceptible. Active = above 20 in both replicates (the paper's putatively resistant). '<' = one read or none on drug, '>' = one read or none on a drug-free plate. Shares are relative, so most strains fall below 1 when a few take over. Listed are strains with at least 15 reads on both drug-free plates, and hits; most hits rest on fewer reference reads. Replicate rank correlation about 0.5. Edits are read from barcodes.

B1: ribF M53A (protein)
chain: MKLIRGIHNLSQAPQEGCVLTIGNFDGVHRGHRALLQGLQEEGRKRNLPVMVALFEPQPLELFATDKAPARLTRLREKLRYLAECGVDYVLCVRFDRRFAALTAQNFISDLLVKHLRVKFLAVGDDFRFGAGREGDFLLLQKAGMEYGFDITSTQTFCEGGVRISSTAVRQALADDNLALAESLLGHPFAISGRVVHGDELGRTIGFPTANVPLRRQVSPVKGVYAVEVLGLGEKPLPGVANIGTRPTVAGIRQQLEVHLLDVAMDLYGRHIQVVLRKKIRNEQRFASLDELKAQIARDELTAREFFGLTKPA
Take B1: the “fold change of barcode share” value was 0.368 ± 0.15 under setting [1] and 0.00915 ± 0.0043 under setting [2].

B2: ribF L54P (protein)
chain: MKLIRGIHNLSQAPQEGCVLTIGNFDGVHRGHRALLQGLQEEGRKRNLPVMVMPFEPQPLELFATDKAPARLTRLREKLRYLAECGVDYVLCVRFDRRFAALTAQNFISDLLVKHLRVKFLAVGDDFRFGAGREGDFLLLQKAGMEYGFDITSTQTFCEGGVRISSTAVRQALADDNLALAESLLGHPFAISGRVVHGDELGRTIGFPTANVPLRRQVSPVKGVYAVEVLGLGEKPLPGVANIGTRPTVAGIRQQLEVHLLDVAMDLYGRHIQVVLRKKIRNEQRFASLDELKAQIARDELTAREFFGLTKPA
With B2, the “fold change of barcode share” value worked out at 0.326 ± 0.076 under setting [1] and 0.12 ± 0.15 under setting [2].

B3: ribF L54Q (protein)
chain: MKLIRGIHNLSQAPQEGCVLTIGNFDGVHRGHRALLQGLQEEGRKRNLPVMVMQFEPQPLELFATDKAPARLTRLREKLRYLAECGVDYVLCVRFDRRFAALTAQNFISDLLVKHLRVKFLAVGDDFRFGAGREGDFLLLQKAGMEYGFDITSTQTFCEGGVRISSTAVRQALADDNLALAESLLGHPFAISGRVVHGDELGRTIGFPTANVPLRRQVSPVKGVYAVEVLGLGEKPLPGVANIGTRPTVAGIRQQLEVHLLDVAMDLYGRHIQVVLRKKIRNEQRFASLDELKAQIARDELTAREFFGLTKPA
Regarding B3, the “fold change of barcode share” value is 0.3 ± 0.036 under setting [1] and less than 0.00183 under setting [2].

B4: ribF V90W (protein)
chain: MKLIRGIHNLSQAPQEGCVLTIGNFDGVHRGHRALLQGLQEEGRKRNLPVMVMLFEPQPLELFATDKAPARLTRLREKLRYLAECGVDYWLCVRFDRRFAALTAQNFISDLLVKHLRVKFLAVGDDFRFGAGREGDFLLLQKAGMEYGFDITSTQTFCEGGVRISSTAVRQALADDNLALAESLLGHPFAISGRVVHGDELGRTIGFPTANVPLRRQVSPVKGVYAVEVLGLGEKPLPGVANIGTRPTVAGIRQQLEVHLLDVAMDLYGRHIQVVLRKKIRNEQRFASLDELKAQIARDELTAREFFGLTKPA
For the protein B4, the “fold change of barcode share” value by setting is: under setting [1], 0.361 ± 0.021; under setting [2], 0.00385 ± 0.0036.

B5: ribF L54D (protein)
chain: MKLIRGIHNLSQAPQEGCVLTIGNFDGVHRGHRALLQGLQEEGRKRNLPVMVMDFEPQPLELFATDKAPARLTRLREKLRYLAECGVDYVLCVRFDRRFAALTAQNFISDLLVKHLRVKFLAVGDDFRFGAGREGDFLLLQKAGMEYGFDITSTQTFCEGGVRISSTAVRQALADDNLALAESLLGHPFAISGRVVHGDELGRTIGFPTANVPLRRQVSPVKGVYAVEVLGLGEKPLPGVANIGTRPTVAGIRQQLEVHLLDVAMDLYGRHIQVVLRKKIRNEQRFASLDELKAQIARDELTAREFFGLTKPA
Take B5: the “fold change of barcode share” value worked out at 0.31 ± 0.05 under setting [1] and 0.555 ± 0.75 under setting [2].

B6: ribF M53W (protein)
chain: MKLIRGIHNLSQAPQEGCVLTIGNFDGVHRGHRALLQGLQEEGRKRNLPVMVWLFEPQPLELFATDKAPARLTRLREKLRYLAECGVDYVLCVRFDRRFAALTAQNFISDLLVKHLRVKFLAVGDDFRFGAGREGDFLLLQKAGMEYGFDITSTQTFCEGGVRISSTAVRQALADDNLALAESLLGHPFAISGRVVHGDELGRTIGFPTANVPLRRQVSPVKGVYAVEVLGLGEKPLPGVANIGTRPTVAGIRQQLEVHLLDVAMDLYGRHIQVVLRKKIRNEQRFASLDELKAQIARDELTAREFFGLTKPA
Consider B6, for which the “fold change of barcode share” value by setting is: under setting [1], 0.33 ± 0.023; under setting [2], 0.0119 ± 0.014.

B7: ribF V90A (protein)
chain: MKLIRGIHNLSQAPQEGCVLTIGNFDGVHRGHRALLQGLQEEGRKRNLPVMVMLFEPQPLELFATDKAPARLTRLREKLRYLAECGVDYALCVRFDRRFAALTAQNFISDLLVKHLRVKFLAVGDDFRFGAGREGDFLLLQKAGMEYGFDITSTQTFCEGGVRISSTAVRQALADDNLALAESLLGHPFAISGRVVHGDELGRTIGFPTANVPLRRQVSPVKGVYAVEVLGLGEKPLPGVANIGTRPTVAGIRQQLEVHLLDVAMDLYGRHIQVVLRKKIRNEQRFASLDELKAQIARDELTAREFFGLTKPA
On to B7, for which the “fold change of barcode share” value reads like this: under setting [1], 0.383 ± 0.24; under setting [2], 0.00486 ± 0.0041.

B8: ribF M53P (protein)
chain: MKLIRGIHNLSQAPQEGCVLTIGNFDGVHRGHRALLQGLQEEGRKRNLPVMVPLFEPQPLELFATDKAPARLTRLREKLRYLAECGVDYVLCVRFDRRFAALTAQNFISDLLVKHLRVKFLAVGDDFRFGAGREGDFLLLQKAGMEYGFDITSTQTFCEGGVRISSTAVRQALADDNLALAESLLGHPFAISGRVVHGDELGRTIGFPTANVPLRRQVSPVKGVYAVEVLGLGEKPLPGVANIGTRPTVAGIRQQLEVHLLDVAMDLYGRHIQVVLRKKIRNEQRFASLDELKAQIARDELTAREFFGLTKPA
Consider B8, for which the “fold change of barcode share” value under setting [1] was 2.32 ± 0.53 and the “fold change of barcode share” value under setting [2] was 258 [active].

B9: ribF V90D (protein)
chain: MKLIRGIHNLSQAPQEGCVLTIGNFDGVHRGHRALLQGLQEEGRKRNLPVMVMLFEPQPLELFATDKAPARLTRLREKLRYLAECGVDYDLCVRFDRRFAALTAQNFISDLLVKHLRVKFLAVGDDFRFGAGREGDFLLLQKAGMEYGFDITSTQTFCEGGVRISSTAVRQALADDNLALAESLLGHPFAISGRVVHGDELGRTIGFPTANVPLRRQVSPVKGVYAVEVLGLGEKPLPGVANIGTRPTVAGIRQQLEVHLLDVAMDLYGRHIQVVLRKKIRNEQRFASLDELKAQIARDELTAREFFGLTKPA
Turning to B9, the “fold change of barcode share” value by setting is: under setting [1], 0.312 ± 0.11; under setting [2], 0.00258 ± 0.002.

B10: ribF L54A (protein)
chain: MKLIRGIHNLSQAPQEGCVLTIGNFDGVHRGHRALLQGLQEEGRKRNLPVMVMAFEPQPLELFATDKAPARLTRLREKLRYLAECGVDYVLCVRFDRRFAALTAQNFISDLLVKHLRVKFLAVGDDFRFGAGREGDFLLLQKAGMEYGFDITSTQTFCEGGVRISSTAVRQALADDNLALAESLLGHPFAISGRVVHGDELGRTIGFPTANVPLRRQVSPVKGVYAVEVLGLGEKPLPGVANIGTRPTVAGIRQQLEVHLLDVAMDLYGRHIQVVLRKKIRNEQRFASLDELKAQIARDELTAREFFGLTKPA
In the case of B10, the “fold change of barcode share” value is, setting by setting: under setting [1], 1.3 ± 1.5; under setting [2], 0.172 ± 0.23.

B11: ribF V90Q (protein)
chain: MKLIRGIHNLSQAPQEGCVLTIGNFDGVHRGHRALLQGLQEEGRKRNLPVMVMLFEPQPLELFATDKAPARLTRLREKLRYLAECGVDYQLCVRFDRRFAALTAQNFISDLLVKHLRVKFLAVGDDFRFGAGREGDFLLLQKAGMEYGFDITSTQTFCEGGVRISSTAVRQALADDNLALAESLLGHPFAISGRVVHGDELGRTIGFPTANVPLRRQVSPVKGVYAVEVLGLGEKPLPGVANIGTRPTVAGIRQQLEVHLLDVAMDLYGRHIQVVLRKKIRNEQRFASLDELKAQIARDELTAREFFGLTKPA
Take B11: the “fold change of barcode share” value under setting [1] is 0.564 ± 0.34 and the “fold change of barcode share” value under setting [2] was 0.00411 ± 0.00062.

B12: ribF M53D (protein)
chain: MKLIRGIHNLSQAPQEGCVLTIGNFDGVHRGHRALLQGLQEEGRKRNLPVMVDLFEPQPLELFATDKAPARLTRLREKLRYLAECGVDYVLCVRFDRRFAALTAQNFISDLLVKHLRVKFLAVGDDFRFGAGREGDFLLLQKAGMEYGFDITSTQTFCEGGVRISSTAVRQALADDNLALAESLLGHPFAISGRVVHGDELGRTIGFPTANVPLRRQVSPVKGVYAVEVLGLGEKPLPGVANIGTRPTVAGIRQQLEVHLLDVAMDLYGRHIQVVLRKKIRNEQRFASLDELKAQIARDELTAREFFGLTKPA
For the protein B12, the “fold change of barcode share” value by setting is: under setting [1], 1 ± 0.48; under setting [2], 12.9 ± 5.8.

B13: ribF M53Q (protein)
chain: MKLIRGIHNLSQAPQEGCVLTIGNFDGVHRGHRALLQGLQEEGRKRNLPVMVQLFEPQPLELFATDKAPARLTRLREKLRYLAECGVDYVLCVRFDRRFAALTAQNFISDLLVKHLRVKFLAVGDDFRFGAGREGDFLLLQKAGMEYGFDITSTQTFCEGGVRISSTAVRQALADDNLALAESLLGHPFAISGRVVHGDELGRTIGFPTANVPLRRQVSPVKGVYAVEVLGLGEKPLPGVANIGTRPTVAGIRQQLEVHLLDVAMDLYGRHIQVVLRKKIRNEQRFASLDELKAQIARDELTAREFFGLTKPA
As to B13, the “fold change of barcode share” value under setting [1] is 0.3 ± 0.022 and the “fold change of barcode share” value under setting [2] stood at 0.0207 ± 0.011.

B14: ribF L54W (protein)
chain: MKLIRGIHNLSQAPQEGCVLTIGNFDGVHRGHRALLQGLQEEGRKRNLPVMVMWFEPQPLELFATDKAPARLTRLREKLRYLAECGVDYVLCVRFDRRFAALTAQNFISDLLVKHLRVKFLAVGDDFRFGAGREGDFLLLQKAGMEYGFDITSTQTFCEGGVRISSTAVRQALADDNLALAESLLGHPFAISGRVVHGDELGRTIGFPTANVPLRRQVSPVKGVYAVEVLGLGEKPLPGVANIGTRPTVAGIRQQLEVHLLDVAMDLYGRHIQVVLRKKIRNEQRFASLDELKAQIARDELTAREFFGLTKPA
Turning to B14, the “fold change of barcode share” value is, setting by setting: under setting [1], 0.308 ± 0.089; under setting [2], 0.111 ± 0.15.
